Laboratory results: PubChem BioAssay AID1508624 (National Center for Advancing Translational Sciences (NCATS), 2021)
In all, about 48,000 compounds went through this assay and about 120 (0.25%) were called active. Inconclusive results (about 4%) are left out. Calls follow the shape of the dose curve; as a rule, active = well fitted activation curve with a large enough effect; inconclusive = small, poorly fitted or top-dose-only effect, or another doubt; inactive = no such curve, though single readings can be large or run the other way. This is one part of the list.

test: Primary qHTS for Identification of Small Molecule Activators of Huntingtin-Antisense Promoter Activity; details: HEK293 HTT-AS promoter firefly luciferase reporter, 24 h; series mostly up to 57.5 µM; activity change, positive = activation: at the top concentration; also: nearly all actives have a fitted effect of over 55% in size
Method in brief: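 Firefly luciferase readout (Dual-Glo, 10 min RT) after 24 h, 37 °C compound exposure (final up to 57.5 uM) of HEK293 reporter cells cultured 24 h beforehand; PTC124 at 50 uM final as control inhibitor; activity scaled vehicle 0%, zero RLU -100%.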

Activity change, positive = activation, inactive:
CCCCCn1c(CCCNC(=O)c2ccccc2)nc2ccccc21 -24.9%, CCCC(=O)N1c2nc(-c3ccco3)nn2C2(CCCCC2)[C@@H]2CCCC[C@@H]21 -23.5%, COc1cccc(NC(=O)Cn2c(=O)n(-c3ccc(C)cc3)c(=O)c3ccccc32)c1 -34.3%, Cc1nn(C)c2c1c(C(F)(F)F)cc(=O)n2CC(=O)Nc1ccc(F)cc1F -29.4%, Cc1ccccc1NC(=O)CSc1nccn1C -6.6%, Cc1nnc(N2CCC(C(=O)NC3CCC(C)CC3)CC2)c2nn(-c3ccc(Cl)cc3)c(C)c12 (configuration not stated) -11.7%, Cc1cccc(N(C)C(=O)Cn2cnc3nc4c(cc3c2=O)CCCC4)c1 -8.5%, CCCSc1nnc(NC(=O)c2cc(=O)c3ccccc3o2)s1 16.7%, COc1ccc(S(=O)(=O)N(CCc2ccccc2)CC(=O)Nc2cc(Cl)ccc2C)cc1 -9.79%, CCOC(=O)N1CCc2c(sc3c2c(=O)n(CCc2ccccc2)c(=O)n3CC(=O)Nc2ccccc2C)C1 -8.88%, COC(=O)c1cc2sccc2n1Cc1c(C)cc(C)cc1C 12%, COc1ccc(NC(=O)C2CCCN(S(=O)(=O)c3ccc4[nH]c(=O)ccc4c3)C2)cc1Cl (configuration not stated) -26.6%, NC(=O)c1c(NC(=O)CS(=O)(=O)c2ccc(Cl)cc2)sc2c1CCCC2 -27.1%, O=C(c1cccc(Cl)c1)N(Cc1cccc(F)c1)C1CCS(=O)(=O)C1 (configuration not stated) -5.6%, CCCN1CCN(CCCNC(=O)c2cc3c(s2)-c2c(C)cccc2OC3)CC1 -2.5%, Cc1ccc(-c2nn(CCC(=O)Nc3ccc(OC(F)(F)F)cc3)c(=O)c3ccccc23)cc1 -7.75%, Cc1ccc(NC(=O)C2CCN(C(=O)c3sc4nc[nH]c(=O)c4c3C)CC2)cc1F -5.43%, COc1ccccc1C(=O)Nc1ccccc1OCc1cc(=O)n2cc(C)sc2n1 -0.0648%, Cc1ccc(C)c(OCCCC(C)(C)C(=O)O)c1 -1.74%, CCOc1cccc(C(=O)N(Cc2ccc(C(C)C)cc2)C2CCS(=O)(=O)C2)c1 (configuration not stated) -12.4%, CCc1cccc(C)c1NC(=O)c1cc(CN2CCCC2)on1 -10.9%, CC(C)NC(=O)C1CCCN(S(=O)(=O)c2ccc3c(ccn3C)c2)C1 (configuration not stated) -5.68%, COCCn1c(C)cc(O)c(C(c2cccc(F)c2)N2CCN(c3ccccc3)CC2)c1=O (configuration not stated) 3.03%, COc1ccc(N(CC(=O)N2CCN(c3cccc(Cl)c3)CC2)S(=O)(=O)c2c(C)noc2C)cc1 -37.7%, CCOc1ccc(C(=O)N2CC(=O)Nc3ccc(F)cc3C2c2ccc(F)cc2)cc1 (configuration not stated) -17.8%, COc1cc(C(=O)N2CCCCCCC2)cc(OC)c1OC -5.35%, COc1ccc(-c2oc3ncn4nc(COc5ccc(Cl)cc5)nc4c3c2-c2ccc(OC)cc2)cc1 6.89% [at 11.5 µM, percent change from vehicle, -100% = no light], CCc1nnc2c(Nc3cc(OC)c(Cl)cc3OC)nc3ccccc3n12 -2.55%, COc1cc(C=CC(=O)CC(=O)C=Cc2ccc(O)c(OC)c2)ccc1O -56.4% [at 116 µM, percent change from vehicle, -100% = no light], O=C(Nc1ccc2oc(-c3cccc4c(Br)cccc34)nc2c1)c1cccc(Cl)c1 10.9%, Cc1cc(Cl)ccc1NC(=O)C1CCCN(c2nnc(C)c3c(C)n(-c4ccccc4)nc23)C1 (configuration not stated) -6.92%, Cc1cc(C)c(NC(=O)C(C)n2nc(C)c3sc4ccccc4c3c2=O)c(C)c1 (configuration not stated) -14.6%, O=C(O)C(=O)Nc1cccc(-c2nn[nH]n2)c1 1.94%, COc1cccc(N2CC(NC(=O)c3cccs3)CC2=O)c1 (configuration not stated) -13.9%, CC(CCc1ccccc1)NC(=O)CSc1n[nH]c(-c2ccccc2Cl)n1 (configuration not stated) -21%, COc1ccc(OC(=O)c2cn(-c3cccc(OC)c3)c(=O)c3ccccc23)cc1 -20.9%, Cc1cc(F)ccc1NC(=O)C1CCCN(C(=O)c2cnn(-c3ccccc3)c2-n2cccc2)C1 (configuration not stated) -44.4%, Cc1ccc(OC(C)C(=O)N2CCN(CCc3ccccn3)CC2)cc1C (configuration not stated) -4.44%, O=S(=O)(NCC(c1ccco1)S(=O)(=O)c1cccs1)c1ccccc1 (configuration not stated) 6.8%, Cc1nc2ccccc2n1CCc1nc2c3ccccc3nc(SCc3ccccc3F)n2n1 -10.8%, CCc1ccc(CNC(=O)c2ccc(Cn3c(=O)c4cccn4c4cccnc43)cc2)cc1 -20.5%, CCCc1nnc(NC(=O)CSc2nnc3c4ccccc4n(CC)c3n2)s1 -14.1%, Cn1nc(-c2ccccc2)c(-c2ccccc2)c(C(=O)Nc2ccccc2C(N)=O)c1=O -8.59%, CN(C)c1ccc(-c2nc3ccc(Cl)cn3c2Nc2ccc3c(c2)OCCO3)cc1 31%, CCCN(CCC)c1cc(C)nc2nc(-c3ccc(C(C)(C)C)cc3)nn12 -14.6%, Cc1cc(C)cc(N2C(=O)CSC23C(=O)N(CC(N)=O)c2ccccc23)c1 (configuration not stated) -0.115%, CCOCCCNC(=O)Cn1ncc2c([nH]c3ccc(C)cc32)c1=O -13.8%, Cc1ccc(C)c(N2CCN(C3(c4ccccc4)C(=O)c4ccccc4C3=O)CC2)c1 -22.2%, COCCN(Cc1ccc(C)c(Br)c1)S(=O)(=O)c1ccc2[nH]c(=O)ccc2c1 -36%, CCOC(=O)c1ccc(NC(=O)c2cc(=O)c3ccc(C)c(C)c3o2)cc1 -0.64% [at 11.5 µM, percent change from vehicle, -100% = no light], CC(=O)N1CCc2cc(Br)cc(S(=O)(=O)CCC(=O)N3CCN(c4cccc(C)c4C)CC3)c21 -34.3%, CCC[C@@H](NC(=O)[C@@H]1[C@H]2CCC[C@@H]2CN1C(=O)[C@@H](NC(=O)[C@@H](NC(=O)c1cnccn1)C1CCCCC1)C(C)(C)C)C(=O)C(=O)NC1CC1 -21.1%, CC(C)(C)C1CCc2c(sc(NC(=O)c3cc(-c4ccc(F)cc4)on3)c2C#N)C1 (configuration not stated) 18.9%, Cc1cc(C)cc(-n2ccn3cnnc3c2=O)c1 -9.09%, Cc1ccc(OCC(=O)OCc2cc(=O)n3nc(C4CC4)sc3n2)cc1C -14.4%, CCC(C(=O)NCCc1ccc(OC)c(OC)c1)n1nc(C)c2sc3ccccc3c2c1=O (configuration not stated) -27.4%, CCCN(c1ccccc1F)S(=O)(=O)c1cc(-c2cc(C)no2)ccc1C -31.7%, Cn1cc(C=CC(=O)c2cccc(F)c2)cc1C=CC(=O)NO 17.1%, CSc1cccc(Nc2cc(C(=O)NC3CCCCC3)c3ccccc3n2)c1 -24%, CCc1ccc2occ(CC(=O)Nc3c(C(=O)c4ccc(F)cc4)oc4ccccc34)c2c1 -12.2%, COc1ccc(C)cc1NC(=O)Cn1c(=O)oc2cc(S(=O)(=O)N3CCCCCC3)ccc21 -24.5%, CN1CCN(Cc2ccc(NC(=O)Nc3ccc(Oc4cc(NC(=O)C5CC5)ncn4)cc3)cc2C(F)(F)F)CC1 -30.9%, COC(=O)c1ccc(NC(=O)C(=O)NCCc2csc3nc(-c4ccccc4F)nn23)cc1 1.63%, CCOC(=O)N1CCN(Cc2nc3cc(NC(=O)CC(C)C)ccc3n2C(C)C)CC1 -41.9%, CCN(CC)S(=O)(=O)c1ccc2c(c1)N(CC(=O)Nc1cccc(C)c1C)C(=O)C1CCCN21 (configuration not stated) -8.82%, O=C(CCCN1CCC(O)(c2ccc(Cl)cc2)CC1)c1ccc(F)cc1, COc1cccc(-c2noc(-c3cc4ccccc4oc3=O)n2)c1OC 29.2%, O=C(NCc1ccc2c(c1)CCN2C(=O)c1ccc(F)cc1)c1c(F)cccc1F -17.5%, COc1cc(OC)c(NC(=O)C(CC(C)C)N2Cc3ccccc3C2=O)cc1Cl (configuration not stated) -23.4%, CCOc1ccccc1NC(=O)CSc1cn(CC(=O)N2CCCCCC2)c2ccccc12 -22.4%, COc1ccc(C)cc1NC(=O)CSc1ncc2c(n1)-c1ccc(Cl)cc1N(Cc1ccccc1)S2(=O)=O -13.7%, Nc1nonc1-c1nc2ccccc2n1CC(=O)Nc1cccc(C(F)(F)F)c1 -32%, Cc1ccc(NC(=O)CCN2C(=O)c3ccccc3Sc3ncccc32)cc1 -13.4%, CC1=C(C(=O)Nc2ccccc2)C(c2ccc(F)cc2)n2nc(SCc3cc(C)ccc3C)nc2N1 (configuration not stated) 10.9%, COCCn1c(C)cc(O)c(C(c2ccccc2)N2CCCCC2)c1=O (configuration not stated) 2.58%, CCc1ccccc1NC(=O)N1CCN(Cc2nc3ccc(C)cc3o2)CC1 -18.8%, Cc1ccc(-n2ncc3c(Nc4ccc(Oc5ccccc5)cc4)ncnc32)cc1 0.329%, Cc1cccc(Cn2cc3c(=O)n(CC(=O)Nc4cccc(C)c4C)nc-3c3cc(F)ccc32)c1 -26.6%, Cc1c(C(=O)Nc2cccc(C(F)(F)F)c2)sc2nc3n(c(=O)c12)CCC3 -1.35%, COc1ccc(NC(=O)c2cc(C3CC3)nc3c2c(C)nn3-c2ccccc2)c(OC)c1 -13.9%, CC(C)Cc1nn2c(=O)cc(COC(=O)c3cccc(NC(=O)c4ccccc4)c3)nc2s1 4.25%, CCCN(CCC)CCNC(=O)c1cc2c(=O)oc3ccc(C)cc3c2s1 -8.77%, Cc1cccc(N2CCN(C(=O)c3cc4ccc5cccnc5c4[nH]3)CC2)c1C -18.8%, CCOCCCNC(=O)Cn1ncc2c([nH]c3ccccc32)c1=O -7.01%, Clc1ccccc1CNCCCSc1nnnn1-c1ccccc1 -7.79%, CCOc1ccc(/C=C/c2nc(C#N)c(NCc3ccc(OC)cc3)o2)cc1 -14.7%, Cc1noc(C)c1S(=O)(=O)N(CC(=O)Nc1ccc(C(F)(F)F)cc1)c1ccc(C(C)C)cc1 -42%, CCOc1ccccc1CNC(=O)CN1C(=O)c2cccnc2Oc2ccc(Cl)cc21 -15.9%, COc1ccc(S(=O)(=O)N2CCCCC2)cc1C(=O)NC1CCS(=O)(=O)C1 (configuration not stated) 2.86%, Cc1ccc(C(=O)c2cn(Cc3ccccc3)c3c(F)cc(F)cc3c2=O)cc1 -22.3%, CCS(=O)(=O)N1CCC2(CC1)OC(=O)C(C)=C2C(=O)NCc1ccc(OC)c(OC)c1 -2.48%, COc1ccc(N2CCN(C(=O)c3cn(C)c4ccc(S(=O)(=O)N5CCOCC5)cc4c3=O)CC2)cc1 -14.7% [at 11.5 µM, percent change from vehicle, -100% = no light]
